The other results are listed elsewhere or left out. Many values rest on one well or one pass, so single values are uncertain.
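Note: cells treated in 1,536-well plates, then fixed and DAPI-stained, with nuclei counted from automated high-throughput microscope images.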

The test relates to IPC-298. The test can be described thus: cell count relative to DMSO control; melanoma cells; higher = more viable cells. The note with it: library dose: standard library concentration; 72 h.
With `CO[C@H]1C[C@@H]2CC[C@@H](C)[C@@](O)(O2)C(=O)C(=O)N2CCCC[C@H]2C(=O)O[C@H]([C@H](C)C[C@@H]2CC[C@@H](OCCO)[C@H](OC)C2)CC(=O)[C@H](C)/C=C(\C)[C@@H](O)[C@@H](OC)C(=O)[C@H](C)C[C@H](C)/C=C/C=C/C=C/1C` [everolimus] + NCC(=O)Nc1ccc(-n2nc(C(F)(F)F)cc2-c2ccc3c(ccc4ccccc43)c2)cc1 [OSU03012] (first compound 0.1 µM, partner dose 5 µM), the cell count came to 65.2%.

In the case of `CC(=O)c1c(C)c2cnc(Nc3ccc(N4CCNCC4)cn3)nc2n(C2CCCC2)c1=O` [palbociclib] + Oc1cc(-c2nc(-c3ccccc3)[nH]c2-c2ccncc2)ccc1Cl [L779450] (first compound 0.2 µM, partner dose 1 µM), the cell count is 71.5%.

`Nc1ccn([C@@H]2O[C@H](CO)[C@@H](O)C2(F)F)c(=O)n1` [gemcitabine] + CC1(C)NC(=O)N(c2ccc([N+](=O)[O-])c(C(F)(F)F)c2)C1=O [nilutamide] (first compound 0.002 µM, partner dose 5 µM) gave a cell count of 55.8%.

As for `CO[C@H]1C[C@@H]2CC[C@@H](C)[C@@](O)(O2)C(=O)C(=O)N2CCCC[C@H]2C(=O)O[C@H]([C@H](C)C[C@@H]2CC[C@@H](OCCO)[C@H](OC)C2)CC(=O)[C@H](C)/C=C(\C)[C@@H](O)[C@@H](OC)C(=O)[C@H](C)C[C@H](C)/C=C/C=C/C=C/1C` [everolimus] + C=CCNC1=C2C[C@@H](C)C[C@H](OC)[C@H](O)[C@@H](C)/C=C(\C)[C@H](OC(N)=O)[C@@H](OC)/C=C\C=C(/C)C(=O)NC(=CC1=O)C2=O [Tanespimycin] (first compound 0.1 µM, partner dose 0.01 µM), the cell count was determined as 56.4%.

For the origin of these results see the supplement of paper PMC4604168 (melanoma cell lines).
